Results on 26 molecules are retold here after PubChem BioAssay (NCATS).

This experiment in a line: qHTS Assay for Lipid Storage Modulators (AID 1519). As to conditions: Drosophila S3 cells, BODIPY lipid droplet/cell ratio, laser cytometry, cells loaded with oleic acid. The method in brief: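 Cells seeded at 5,000 per well were treated with compounds over a concentration series and loaded with oleic acid (400 uM, as added). Lipid droplet fluorescence (488 nm excitation, 500-530 nm channel) was read by laser-scanning cytometry and normalized to 20 uM Triacsin C.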

Setting [1] is: measured here: cell count channel max response.
Setting [2] is: measured here: lipid (BODIPY) channel AC50.
Where [3] appears, read: measured here: lipid channel max response.
Setting [4] is: measured here: cell number channel AC50.

Molecules are shown by their SMILES. The list shows a part of the results. These are further read-outs of the screen, such as a control signal, another cell line or another target. No call is given for them. The list favours compounds with an active or inconclusive main result. Words in brackets tell the shape of the fitted curve; partial curves, single points and poor fits give uncertain potencies.
Tags tell the direction and shape of the fitted curve.

For the molecule `COc1ccc(-n2c(=O)c(CCc3ccccc3)nc3cnc(OC)nc32)cc1`, the max response by setting is: under setting [1], -0.493%; under setting [3], 2.64%. Further, the AC50 under setting [2] was 2820 nM [rising, partial curve].
For `Cn1c(=O)c(-c2cc(F)cc(F)c2)nc2cnc(Oc3cccc(Cl)c3)nc21`, the max response turned out to be 25.7% under setting [1] and 12.9% under setting [3]. Besides, under setting [2], the AC50 is 17.8 nM [rising, full curve, poor fit].
In the case of `N#CCCn1c(=O)c(-c2cccc(C#N)c2)nc2cnc(Oc3ccccc3)nc21`, the max response is, setting by setting: under setting [1], 3.76%; under setting [3], 3.78%. In addition, the AC50 under setting [2] was 126 nM [rising, full curve, poor fit].
As to `Cc1nc2cnc(Oc3cccc(Cl)c3)nc2n(C2CC2)c1=O`, the max response was determined as 24% under setting [1] and 29.9% under setting [3]. Also, under setting [2], the AC50 is 1780 nM [rising, full curve, poor fit].
For the molecule `COc1cccc(Nc2ncc3nc(-c4cccs4)c(=O)n(Cc4cccs4)c3n2)c1`, the max response is 20% under setting [1] and -47% under setting [3]. Also, the AC50 under setting [2] was 17800 nM [falling, single point].
For the molecule `C[C@@H]1C[C@H]2[C@H]3C[C@@H](F)C4=CC(=O)C=C[C@]4(C)[C@@]3(Cl)[C@@H](O)C[C@@]2(C)[C@@H]1C(=O)COC(=O)C(C)(C)C`, the max response is, setting by setting: under setting [1], -17.4%; under setting [3], -30.9%. Under setting [2], the AC50 was 22400 nM [falling, single point].
`COc1ncc2nc(-c3ccc(F)cc3)c(=O)n(CCc3ccccc3)c2n1`: the max response reads like this: under setting [1], 20.1%; under setting [3], 32.6%. Also, the half-maximal activity concentration (AC50) under setting [2] was 50.1 nM [rising, full curve].
In the case of `CC(Oc1ccc(O)cc1)(P(=O)(O)O)P(=O)(O)O`, the max response was 16.5% under setting [1] and 27.9% under setting [3]. Besides, under setting [2], the AC50 is 2510 nM [rising, full curve, poor fit].
On to `COc1ccccc1-c1ccc2ncnc(N3CCOCC3)c2c1`, for which the max response by setting is: under setting [1], -3.16%; under setting [3], 9.01%. In addition, under setting [2], the AC50 is 1000 nM [rising, full curve, poor fit].
For the molecule `COc1ccc(Oc2ncc3nc(-c4cccs4)c(=O)n(Cc4cccs4)c3n2)cc1`, the max response is 27.2% under setting [1] and -0.352% under setting [3]. Further, the AC50 under setting [4] was 282 nM [rising, full curve, poor fit].
Take `COc1cccc(Cn2c(=O)c(-c3cccs3)nc3cncnc32)c1`: the max response was 36.3% under setting [1] and 39.9% under setting [3]. Moreover, the AC50 under setting [2] is 282 nM [rising, full curve, poor fit].
As to `Cc1noc(C)c1C(=O)N1CCC[C@@]2(CCN(Cc3nccs3)C2)C1`, the max response came to 25.2% under setting [1] and 35.5% under setting [3]. For the same molecule, the AC50 under setting [2] was 5.62 nM [rising, full curve, poor fit].
As for `COc1ccc(-c2nc3cnc(N4CCN(C)CC4)nc3n(CCC#N)c2=O)cc1`, the max response by setting is: under setting [1], 26.1%; under setting [3], 35.2%. For the same molecule, the AC50 under setting [2] is 2510 nM [rising, full curve, poor fit].
Turning to `COC(=O)N1CCC2(CCN(C(=O)Nc3ccc(OC)cc3)CC2)CC1`, the max response was determined as 16% under setting [1] and 26% under setting [3]. Also, the AC50 under setting [4] was 3550 nM [rising, partial curve, poor fit].
`COc1ccc(NC(=O)N2CCC3(CC2)CCN(C(=O)c2ccco2)CC3)cc1`: the max response under setting [1] was 12.8% and the max response under setting [3] came out at 24.4%. For the same molecule, the AC50 under setting [2] was 3160 nM [rising, full curve, poor fit].
For the molecule `COc1cccc(Cn2c(=O)cnc3cnc(N4CCOCC4)nc32)c1`, the max response under setting [1] turned out to be 9.11% and the max response under setting [3] was 17.2%. The AC50 under setting [2] was 158 nM [rising, full curve].
As for `COc1ccc(/C=C/C(=O)O)cc1OC`, the max response runs as follows: under setting [1], 15.7%; under setting [3], 37.3%. Besides, the AC50 under setting [2] was 28200 nM [rising, single point].
Take `CN(Cc1ccco1)c1cc(-c2cccc(C#N)c2)ncn1`: the max response was 26.9% under setting [1] and 36.5% under setting [3]. The AC50 under setting [2] is 1780 nM [rising, full curve].
In the case of `Cc1nc2cnc(N3CCNCC3)nc2n(-c2ccccc2)c1=O`, the max response was determined as 32.7% under setting [1] and 37.5% under setting [3]. Also, under setting [2], the AC50 was 35500 nM [rising, partial curve, poor fit].
As to `COc1cccc(Nc2ncc3nc(-c4cc(F)cc(F)c4)c(=O)n(C[C@H]4CCCO4)c3n2)c1`, the max response by setting is: under setting [1], 138%; under setting [3], -58.2%. The AC50 under setting [4] is 28200 nM [rising, partial curve].
For `O=c1c(-c2ccccc2)nc2cnc(Nc3ccccc3)nc2n1C[C@H]1CCCO1`, the max response is, setting by setting: under setting [1], -5.82%; under setting [3], -48.2%. Moreover, under setting [2], the AC50 is 7940 nM [falling, partial curve].
For `COCCn1c(=O)c(-c2cccs2)nc2cncnc21`, the max response runs as follows: under setting [1], 26.5%; under setting [3], 37.1%. Also, the half-maximal activity concentration (AC50) under setting [2] is 1780 nM [rising, partial curve].
`O=c1c(-c2cccs2)nc2cnc(Oc3ccccc3)nc2n1-c1ccccc1`: the max response under setting [1] was found to be 36.6% and the max response under setting [3] was -2.57%. For the same molecule, the half-maximal activity concentration (AC50) under setting [4] was 2240 nM [rising, full curve].
Consider `COc1cc(OC)c2c(=O)c(-c3ccccc3)c(C)oc2c1OC`, for which the max response reads like this: under setting [1], 17.3%; under setting [3], 31.8%. Moreover, the AC50 under setting [2] was 39800 nM [rising, single point].
As to `Cc1cnc(CNc2ncnc3ccc(-c4ccccc4C#N)cc23)cn1`, the max response is 23% under setting [1] and 32.5% under setting [3]. Further, the AC50 under setting [2] was 39800 nM [rising, single point].
On to `Cc1nc2cncnc2n(Cc2ccc(F)cc2)c1=O`, for which the max response under setting [1] is 28.3% and the max response under setting [3] stood at 32.5%. The AC50 under setting [2] was 2240 nM [rising, full curve, poor fit].

One may read the AC50 as the midpoint of the concentration-response curve, whichever way the signal moves.
